Consider 57 sequences from the supplement of paper PMC11417369.

Some of the results follow.

In this experiment the test system is PfSIP2 AP2 domain 1 (GST-tagged). The experiment can be described thus: gcPBM binding intensity (ln(normalized median fluorescence intensity)); higher = stronger DNA binding. In short, it runs like this: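 Plasmodium falciparum DNA-binding domains carrying a GST tag were expressed in E. coli and applied for 1 h, at about 25 μg on average, to an Agilent 4 × 180k array. The array held primer-extended double-stranded 36-bp intergenic genomic probes together with negative controls, and binding took place in 1× PBS with 1% milk, 0.2 mg/ml BSA, 0.5% salmon testes DNA and 0.03% Triton X-100. An Alexa488 anti-GST antibody detected bound protein, and the array was scanned at 488 nm. Binding intensity is taken as the highest Masliner-normalised natural-log median intensity across replicate spots of either probe orientation.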
As to “TTTAAAAAAAAAAAAAAAAATTAAATGAATTATTAA [CACACA_negctrl_site1121]”, the “gcPBM binding intensity (ln)” value stood at 6.49.
For the sequence “TAACATGATATATAATGTACATATAAGATATTTATA [XGTACX_site4383]”, the “gcPBM binding intensity (ln)” value was 6.93.
In the case of “ATAACATAACATAATACACACATATAAAAAAGAAAT [CACACA_site3028]”, the “gcPBM binding intensity (ln)” value was determined as 7.24.
As for “ATATAATATATTTTCACACATATTTTATGATGATAA [CACACA_site5614]”, the “gcPBM binding intensity (ln)” value worked out at 6.95.
The value for “AAAAAAAAAAAAAAAGGTACAGTAAAAAATTCCTCT [XGTACX_site5947]” was 7.41; that for “AAATTTAATTTTATATCACACATTAAATTTTAATGG [CACACA_site4251]” was 6.9.
The result for “TATTCTATAAATATATTTTTTTAATTTTTTATTTTA [CACACA_negctrl_site307]” reads 6.62.
The value for “TATGTAAAAAGAGAAAAAAAAAAGAACGATAATTTC [CACACA_negctrl_site946]” was 6.58; that for “ATATAAGAATTTAAGAGTACATTCACTTCAAATTTA [XGTACX_site2115]” was 6.94; that for “AGGTGTATCATAAAATGTACATACATACATACATAA [XGTACX_site4479]” was 7.02.
On to “AAAATGTGCTTTTCAGTGCAATTTTTTTTGTAATAA [GTGCAC_site9566]”, for which the “gcPBM binding intensity (ln)” value is 7.56.
Take “TTGTAATTCATTCAAATATAAAATAAATAAATATGA [CACACA_negctrl_site349]”: the “gcPBM binding intensity (ln)” value was 6.59.
Turning to “TATTATTATTTTTTATGTACTAACGACAAAAATATT [XGTACX_site252]”, the “gcPBM binding intensity (ln)” value was 7.19.
Regarding “AAGCTACACATAGATTATTATTAATTTAATGTATAT [CACACA_negctrl_site548]”, the “gcPBM binding intensity (ln)” value turned out to be 6.82.
In the case of “TACGTGAAATTATATACACACATAAATATGTCTGTA [CACACA_site3122]”, the “gcPBM binding intensity (ln)” value stood at 6.83.
Consider “ACAAGCTTTCATAAGGTGCAATGATTTAACAAAAAA [GTGCAC_site9726]”, for which the “gcPBM binding intensity (ln)” value was 10.1.
As for AATTATTAGCGTGGTGTGCACAAAATTATGGACACA, the “gcPBM binding intensity (ln)” value amounted to 8.73.
For the sequence “TATAAAAATAATATTACACACATGTAAAATGTCGGT [CACACA_site3264]”, the “gcPBM binding intensity (ln)” value amounted to 6.86.
The result for “ACACATGACATCCGTTGTACAATCATCATAAAAATG [XGTACX_site5397]” reads 7.32; that for “AGCATTTATGAAAAATGTACACACATCAAATGCTTA [XGTACX_site8749]”, 6.96; that for “AGCAACCCCCTAGCTACACACATATAGATATATATA [CACACA_site951]”, 7.58.
Turning to “TTTCCCTTAAATTAATGTACATAAATTGAAAATACC [XGTACX_site1602]”, the “gcPBM binding intensity (ln)” value was determined as 7.33.
On to “TATATATTATACACGTGTACACATTATAACAATATA [XGTACX_site7799]”, for which the “gcPBM binding intensity (ln)” value came to 7.4.
As for “TAAAATTTTTTTGTTTGTACATATATATATATAATA [XGTACX_site5609]”, the “gcPBM binding intensity (ln)” value worked out at 7.27.
“AAAAAAAAAAAACACACACACAAAAAAAAATATATA [CACACA_site1105]”: the “gcPBM binding intensity (ln)” value is 6.94.
The result for “AAAAAAATAAATAAATACATACATATATATATGTAT [GTGCAC_negctrl_site510]” reads 6.85; that for “TTGCCCCAGGAGTTCACACACATAATAGATTGTCAC [CACACA_site726]”, 7.01.
Turning to “ATAATCCTTAAACACACACACACACTAATAAATAAA [CACACA_site8052]”, the “gcPBM binding intensity (ln)” value came out at 7.03.
The result for “AAAAGTTATAGACACACACACATATAAATATAGATT [CACACA_site6617]” reads 6.96.
Consider “ATAAAAATTAAAGAATGTACACATATAATATATGTA [XGTACX_site8735]”, for which the “gcPBM binding intensity (ln)” value was 6.86.
On to “TTGTTTCCTTAATATTCACACACATATATATAATAT [CACACA_site8553]”, for which the “gcPBM binding intensity (ln)” value came to 7.56.
For the sequence TATAAATGTATACAAGTGCATATTATTCACACATAA, the “gcPBM binding intensity (ln)” value was 8.35.
The result for “TTTTAAAAAAATAAATAAATAGAAAAAAAAAATAAA [TGCATGCA_negctrl_site579]” reads 6.69; that for “GGATATATTTTATGTACACACATATATAACGGATAT [CACACA_site4847]”, 7.21; that for “TATTATGACTTAAGTTGTACTGTTGAAAGAAGAAAA [XGTACX_site2985]”, 7.02.
As for “CGTATAAATAAATACACACACATATAAATATGTAAA [CACACA_site6236]”, the “gcPBM binding intensity (ln)” value stood at 7.1.
The value for “TAATATATTGTAGATGCATGCATTAACTATTACAAA [TGCATGCA_site190]” was 6.81; that for “TATCAATGGAAAATATATATTTGTATATATGTAATA [XGTACX_negctrl_site257]” was 7.04.
As for “GAAATTATTATATAAACACACATTTATTTTATTTTA [CACACA_site1957]”, the “gcPBM binding intensity (ln)” value stood at 6.85.
In the case of “GTATTATACCATAATGCATGTTAACTTCAAAAGAAA [TGCATGCA_site839]”, the “gcPBM binding intensity (ln)” value was found to be 7.
In the case of “TGTGTATACTTGTGTATACCAAATTAAAGACGCTTT [CACACA_negctrl_site1359]”, the “gcPBM binding intensity (ln)” value is 6.74.
On to “AAAAAATAAAAAAGGTGGTCATGTCACAAATACTTT [XGTACX_site7454]”, for which the “gcPBM binding intensity (ln)” value was 6.78.
The result for “TAAAAGTGATATGTTCGTACGTATTTATATGTAATA [XGTACX_site211]” reads 7.06.
For “GTATATATATATATATATATATATATATATATATAT [CACACA_negctrl_site609]”, the “gcPBM binding intensity (ln)” value turned out to be 9.29.
The value for “TCTCCATCTTATGAGACATGCACTTTTTATTTAATA [TGCATGCA_site121]” was 9.24.
As to “TTGTGTAAATGTTAAGTGCATTTGGTAAAATATAAA [GTGCAC_site9699]”, the “gcPBM binding intensity (ln)” value was found to be 8.01.
Regarding “AAAAAAAAAAAAAAAACACACATACCCATATATTTT [CACACA_site6013]”, the “gcPBM binding intensity (ln)” value stood at 7.49.
The value for ATGATATGCAATTTAGTGCATAACAAAATTGGTATA was 8.45; that for “TTTTTCTTTTTTTGGGGTACAGGGAAATCTATATTT [XGTACX_site7025]” was 7.26; that for “TCTTAATTTTTGAAGGTACACACTAATATATTAAAT [CACACA_site1191]” was 7.11.
For the sequence “CCATAAAAAGGTACATGTACAAAAAGCAAAAATATG [XGTACX_site5543]”, the “gcPBM binding intensity (ln)” value was found to be 7.29.
In the case of “ATATTTTTCCAACATCGTACATTATGAGTCAAAATT [XGTACX_site993]”, the “gcPBM binding intensity (ln)” value came to 7.33.
As to “CAATTAAAGATATGAACACACATGTGAACTTTCTAT [CACACA_site7796]”, the “gcPBM binding intensity (ln)” value worked out at 6.7.
The value for “AATTTAATTTTTTCGTGTACTTATATAGGAGGTTTT [XGTACX_site8310]” was 6.97; that for “TTTCTTATCAACCTTTTTTTTTTTTTTTTATTCTTA [TGCATGCA_negctrl_site162]” was 6.44; that for “CCCATATTATAGGTGTGTACATAAAAGTATATATAA [XGTACX_site3629]” was 7.65.
For the sequence “AGAAGAAATATGTAAAAAATTTTATATTCACACACA [GTGCAC_negctrl_site441]”, the “gcPBM binding intensity (ln)” value is 7.13.
